± gives the standard deviation of the averaged measurements. The list shows a part of the results.
The sequences below were run on PfAP2-G AP2 domain (GST-tagged) (assay: gcPBM binding intensity (ln(normalized median fluorescence intensity)); higher = stronger DNA binding).
Summary of the method: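 GST-tagged P. falciparum DNA-binding domains produced in E. coli were incubated for 1 h on an Agilent 4 × 180k array of primer-extended double-stranded 36-bp intergenic genomic probes with negative controls. Binding intensity is the highest Masliner-normalised natural-log median intensity across replicate spots of either probe orientation, with bound protein detected by Alexa488 anti-GST antibody at 488 nm.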
With “AATAATCATGATCATAGTACGTATGAATACAAAAAA [XGTACX_site265]” the “gcPBM binding intensity (ln)” value was 11 ± 0.62. In the case of “ATATATATATGTATATGTACTCATTCTTCTGTGTTT [XGTACX_site5014]”, the “gcPBM binding intensity (ln)” value is reported as 11.2 ± 0.96. In the case of “TAAGTCAAAACTTTTTTTTCTAAATTTCCATAATTA [GTGCAC_negctrl_site29]”, the “gcPBM binding intensity (ln)” value is reported as 9.61 ± 0.11. In the case of “ATATACATTCTATATACATGCATACTTCATTTTGTG [TGCATGCA_site966]”, the “gcPBM binding intensity (ln)” value is reported as 10.24 ± 0.014. With “TACATAATAATAAGGCGTACATAAAAATTAAAAATT [XGTACX_site8769]” the “gcPBM binding intensity (ln)” value was 11.4 ± 1. “AAAACGATTTTTTGCACACACATAATAAGCAGAACA [CACACA_site3871]” was tested, and the “gcPBM binding intensity (ln)” value was 10.3 ± 0.18. “AAATGAATTTAACAATGTACACATATATTATAAATA [XGTACX_site1449]” was tested, and the “gcPBM binding intensity (ln)” value was 11.3 ± 0.67. In the case of “ATTTAATTTTCCAAATGTACTTATATTTTTATGAAA [XGTACX_site6144]”, the “gcPBM binding intensity (ln)” value is reported as 11.2 ± 0.92. In the case of TGAAATGATCTTTAGTTGCACTTAAAAATATATATA, the “gcPBM binding intensity (ln)” value is reported as 9.98 ± 0.22. For “CAAAAAGATAAGGTGTGTACGTATTATAATTTTAAA [XGTACX_site531]”, the “gcPBM binding intensity (ln)” value was 11.5 ± 0.99. For “AAAAAAAAAAAAAACACACACATATATATAATATAT [CACACA_site3172]”, the “gcPBM binding intensity (ln)” value was 9.88 ± 0.16. In the case of “AAGTATAGTCTTACATATATATATATATATATATAT [GTGCAC_negctrl_site280]”, the “gcPBM binding intensity (ln)” value is reported as 10.1 ± 0.67. “GGTATATAAAAATATTGTACTTAAAAAAATATGTAT [XGTACX_site6253]” was tested, and the “gcPBM binding intensity (ln)” value was 11.4 ± 0.99. TATTTCACTTTTTGTCTGCACTAAAATTTTATGGTA was tested, and the “gcPBM binding intensity (ln)” value was 10.4 ± 0.23. For “TAGATACATAAACACACACACACATACATATATACA [CACACA_site9139]”, the “gcPBM binding intensity (ln)” value was 10.1 ± 0.16. In the case of “TAAGAAATAAATAGTACACACATAGACACCCACCGA [CACACA_site1516]”, the “gcPBM binding intensity (ln)” value is reported as 11.5 ± 0.93. “AGTATACTCAAACACACACACACAAAAAAAAAAAAA [CACACA_site4398]” was tested, and the “gcPBM binding intensity (ln)” value was 10.1 ± 0.42. “GTAATATTAATATAATGTACAAAATGAAACATATAT [XGTACX_site6219]” was tested, and the “gcPBM binding intensity (ln)” value was 10.7 ± 0.35. “CAGTTTAATTTACATAGTACATAATATTTTAATTTT [XGTACX_site1793]” was tested, and the “gcPBM binding intensity (ln)” value was 10.6 ± 0.33. In the case of “ACAATATTATTATTTAACCATACACAATTATATGTC [XGTACX_negctrl_site378]”, the “gcPBM binding intensity (ln)” value is reported as 9.94 ± 0.14. “TATATTTAATTACATGAACACACATTATATATTTTT [CACACA_site8969]” was tested, and the “gcPBM binding intensity (ln)” value was 9.845 ± 0.064. With “TGTAGTATCAATTTTTGTACATAACACATATGTATA [XGTACX_site613]” the “gcPBM binding intensity (ln)” value was 11 ± 0.5. In the case of “ATATATATATATATATGTACATATTATTCTCATTGT [XGTACX_site6259]”, the “gcPBM binding intensity (ln)” value is reported as 11 ± 0.56. With “ATGTTCTATAAATATGAACACACGACATATTATTTA [CACACA_site1799]” the “gcPBM binding intensity (ln)” value was 9.97 ± 0.014. For “AAAATATAAATATATTTGAACATGGATCAAATGTAA [GTGCAC_negctrl_site626]”, the “gcPBM binding intensity (ln)” value was 9.975 ± 0.021. For “ATACATACATACATACGTACATATGTATATATATAT [XGTACX_site8498]”, the “gcPBM binding intensity (ln)” value was 11.3 ± 0.81. In the case of “TATTCATTCTATAAAACACACAAATATTTTTGTATC [CACACA_site666]”, the “gcPBM binding intensity (ln)” value is reported as 9.72 ± 0.16. “AAAACAAACACATTTACACACATAAATAAATCAATT [CACACA_site4122]” was tested, and the “gcPBM binding intensity (ln)” value was 10 ± 0.23. In the case of “TTTATTTTTCCATATGCACACACACCGTATATATAA [CACACA_site8293]”, the “gcPBM binding intensity (ln)” value is reported as 10.3 ± 0.16. With “GTATATGAATGTTCATGTACATAATAAAATATATAA [XGTACX_site250]” the “gcPBM binding intensity (ln)” value was 11 ± 0.56. With “AAATTAAAATATAATACACACATAAAAAAAAAATCA [CACACA_site5918]” the “gcPBM binding intensity (ln)” value was 9.92 ± 0.014. In the case of “ATAAAATATAAAAACGCACACAATTATAAGGGTGTA [CACACA_site177]”, the “gcPBM binding intensity (ln)” value is reported as 10.02 ± 0.042. “ATATATATATATAAAGTGCAAAAATGAAAGTAAGAC [GTGCAC_site9850]” was tested, and the “gcPBM binding intensity (ln)” value was 10.3 ± 0.25. With “CACGAAAATTTGTAGAGTACATATATAATTAATATA [XGTACX_site3808]” the “gcPBM binding intensity (ln)” value was 11.2 ± 0.69. In the case of “ATATATATATATATATGTACATATTGTATTATTCAC [XGTACX_site6511]”, the “gcPBM binding intensity (ln)” value is reported as 11.2 ± 0.69. For “ATTAAAAAAAAGCTCATCGAAATGTCTTATATAAAT [CACACA_negctrl_site912]”, the “gcPBM binding intensity (ln)” value was 9.76 ± 0.16. With “AAACAATTTAGACATACACACAAAAATAATATTATA [CACACA_site384]” the “gcPBM binding intensity (ln)” value was 10.1 ± 0.12. For “CAATTAAACAATTAAACATGCAAAATGATATAATAA [TGCATGCA_site240]”, the “gcPBM binding intensity (ln)” value was 9.71 ± 0.12. With “AAAAAAAAATAGAAATGTACAAATTGTAATAATTCC [XGTACX_site6182]” the “gcPBM binding intensity (ln)” value was 10.4 ± 0.19. “ATATATATATATATTTGTACATAATATATATATGCA [XGTACX_site1795]” was tested, and the “gcPBM binding intensity (ln)” value was 10.9 ± 0.67. In the case of “GAGCATTACACATATACACACATATATATAAACATA [CACACA_site5515]”, the “gcPBM binding intensity (ln)” value is reported as 10.1 ± 0.15. In the case of “TATAATAATATTTATTGTACGATTAGATTAATTCAT [XGTACX_site612]”, the “gcPBM binding intensity (ln)” value is reported as 11 ± 0.63. With “CATATGATATTATTTTGTACTTATTACAAATATGAA [XGTACX_site7929]” the “gcPBM binding intensity (ln)” value was 11.1 ± 0.64. With “TCGTCTCAATAATTATAATAAAAAAATTCCTAAGTC [CACACA_negctrl_site338]” the “gcPBM binding intensity (ln)” value was 9.78 ± 0.014. In the case of TTATATTTCACAAATGTGCACAGATACATATATATA, the “gcPBM binding intensity (ln)” value is reported as 10.5 ± 0.38. “ATTTTCCTATTTAGTAGTACTTTTTTCTTTTTTTAA [XGTACX_site5260]” was tested, and the “gcPBM binding intensity (ln)” value was 11.4 ± 0.86. “TTTTTGTTTCATAAATGTACAAAAACAAACATATTT [XGTACX_site5281]” was tested, and the “gcPBM binding intensity (ln)” value was 10.7 ± 0.65. “TTATATGTATATATAGTGCAGAACAAAAGATTATAT [GTGCAC_site9599]” was tested, and the “gcPBM binding intensity (ln)” value was 10.4 ± 0.32. In the case of “TATGAATGGTTAAGTACACACATATTAATATAGGTA [CACACA_site7606]”, the “gcPBM binding intensity (ln)” value is reported as 11.4 ± 0.98. For ATCAATAAATAAAATGTGCACATAATATATTAATAC, the “gcPBM binding intensity (ln)” value was 10.5 ± 0.34. In the case of “AATTTTTTTTTTTTTTTTTTTTATATATGTGTGTGT [XGTACX_negctrl_site129]”, the “gcPBM binding intensity (ln)” value is reported as 9.95 ± 0.54. With “TTATTATCATCAAATCAAAAAATTCTTTTACCTGTT [CACACA_negctrl_site1348]” the “gcPBM binding intensity (ln)” value was 9.62 ± 0.23. In the case of “TATATATATATATGTAGTACCTATAATATTAAATAC [XGTACX_site6118]”, the “gcPBM binding intensity (ln)” value is reported as 11.2 ± 0.76. “AAGAAAAGAAACAAAAAAAAAAAGAAATAAAAGGAA [TGCATGCA_negctrl_site171]” was tested, and the “gcPBM binding intensity (ln)” value was 9.535 ± 0.078. With “CTTATAAATAAAAGAAGTACATGTTAGTTCAAGTTA [XGTACX_site4183]” the “gcPBM binding intensity (ln)” value was 11.6 ± 0.91. For “TTGAAGAAAAAAAAATGTACATAAAAAATATATATG [XGTACX_site428]”, the “gcPBM binding intensity (ln)” value was 11.4 ± 0.67. In the case of “TTCTTTATTATATGCACACGTACATAAAATATATAT [CACACA_site5157]”, the “gcPBM binding intensity (ln)” value is reported as 11.5 ± 1.
